Experimental findings from the supplement of paper PMC4604168 (melanoma cell lines) are described below.

The list shows a part of the results. Single values are uncertain, as repeats are few or missing.
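Note: cell number obtained by counting DAPI-stained nuclei in high-throughput microscope images with image analysis software, screen run in 1,536-well plates.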

One assay has as its system MZ2-MEL. Description: cell count relative to DMSO control; melanoma cells; higher = more viable cells. Conditions: library dose: low library concentration; 72 h.
In the case of `Oc1cc(-c2nc(-c3ccccc3)[nH]c2-c2ccncc2)ccc1Cl` + O=C(Oc1ccc([N+](=O)[O-])cc1)N1CCC(C(O)(c2ccc3c(c2)OCO3)c2ccc3c(c2)OCO3)CC1 [JZL184] (first compound 0.2 µM, partner dose 1 µM), the cell count is 82.1%. As for `Nc1ccn([C@@H]2O[C@H](CO)[C@@H](O)C2(F)F)c(=O)n1` [gemcitabine] + C/C(O)=C(\C#N)C(=O)Nc1cc(Br)ccc1Br [LFM-A13] (first compound 0.0004 µM, partner dose 2 µM), the cell count amounted to 97.6%. On to `CC(C)C[C@H](NC(=O)[C@H](Cc1ccccc1)NC(=O)c1cnccn1)B(O)O` [Bortezomib] + C/C(O)=C(\C#N)C(=O)Nc1cc(Br)ccc1Br [LFM-A13] (first compound 0.001 µM, partner dose 2 µM), for which the cell count was 68.9%. Compound `CO[C@H]1C[C@@H]2CC[C@@H](C)[C@@](O)(O2)C(=O)C(=O)N2CCCC[C@H]2C(=O)O[C@H]([C@H](C)C[C@@H]2CC[C@@H](OCCO)[C@H](OC)C2)CC(=O)[C@H](C)/C=C(\C)[C@@H](O)[C@@H](OC)C(=O)[C@H](C)C[C@H](C)/C=C/C=C/C=C/1C` [everolimus] + Cc1cc(SCc2sc(-c3ccc(C(F)(F)F)c(F)c3)nc2C)ccc1OCC(=O)O [GW0742] (first compound 0.02 µM, partner dose 2 µM) yielded a cell count of 99.6%.

Take `Nc1ccn([C@@H]2O[C@H](CO)[C@@H](O)C2(F)F)c(=O)n1` [gemcitabine] + O=C(Oc1ccc([N+](=O)[O-])cc1)N1CCC(C(O)(c2ccc3c(c2)OCO3)c2ccc3c(c2)OCO3)CC1 [JZL184] (first compound 0.0004 µM, partner dose 1 µM): the cell count turned out to be 96%.

`Cc1nc(Nc2ncc(C(=O)Nc3c(C)cccc3Cl)s2)cc(N2CCN(CCO)CC2)n1` [dasatanib] + Cc1cc(SCc2sc(-c3ccc(C(F)(F)F)c(F)c3)nc2C)ccc1OCC(=O)O [GW0742] (first compound 0.004 µM, partner dose 2 µM): the cell count was found to be 72.8%. As to `COCC[n+]1c2c(n(Cc3cnccn3)c1C)C(=O)c1ccccc1C2=O` + Cc1cc(SCc2sc(-c3ccc(C(F)(F)F)c(F)c3)nc2C)ccc1OCC(=O)O [GW0742] (first compound 0.0004 µM, partner dose 2 µM), the cell count came out at 54.2%. As for `Cc1cc(Nc2cc(N3CCN(C)CC3)nc(Sc3ccc(NC(=O)C4CC4)cc3)n2)n[nH]1` [Tozasertib] + C/C(O)=C(\C#N)C(=O)Nc1cc(Br)ccc1Br [LFM-A13] (first compound 0.006 µM, partner dose 2 µM), the cell count was found to be 102%. On the same count and under the same terms, the value for `Cc1cc(Nc2cc(N3CCN(C)CC3)nc(Sc3ccc(NC(=O)C4CC4)cc3)n2)n[nH]1` [Tozasertib] + C[As](C)SC[C@H](NC(=O)CC[C@H](N)C(=O)O)C(=O)NCC(=O)O [Darinaparsin] (first compound 0.006 µM, partner dose 0.4 µM) was 95.6%; that for `COc1ccc(COc2ccc(Cc3cnc(N)nc3N)cc2OC)cc1` + C/C(O)=C(\C#N)C(=O)Nc1cc(Br)ccc1Br [LFM-A13] (first compound 1 µM, partner dose 2 µM) was 106%; that for `O=C(O)c1ccc2c(c1)nc(Nc1cccc(Cl)c1)c1ccncc12` + O=C(Oc1ccc([N+](=O)[O-])cc1)N1CCC(C(O)(c2ccc3c(c2)OCO3)c2ccc3c(c2)OCO3)CC1 [JZL184] (first compound 0.4 µM, partner dose 1 µM) was 85.8%.

`COc1ccc(COc2ccc(Cc3cnc(N)nc3N)cc2OC)cc1` + Cc1cc(SCc2sc(-c3ccc(C(F)(F)F)c(F)c3)nc2C)ccc1OCC(=O)O [GW0742] (first compound 1 µM, partner dose 2 µM) yielded a cell count of 93%. `Clc1ccc(Nc2nnc(Cc3ccncc3)c3ccccc23)cc1` [vatalanib] + C[As](C)SC[C@H](NC(=O)CC[C@H](N)C(=O)O)C(=O)NCC(=O)O [Darinaparsin] (first compound 2 µM, partner dose 0.4 µM) displayed a cell count of 91.3%. Consider `CC(C)C[C@H](NC(=O)[C@H](Cc1ccccc1)NC(=O)c1cnccn1)B(O)O` [Bortezomib] + N.N.[Cl][Pt][Cl] [cisplatin] (first compound 0.001 µM, partner dose 1.6 µM), for which the cell count stood at 68.9%.

The subject of the next assay is MeWo. The description is as above. Conditions: library dose: low library concentration; 72 h.
For `O=C1NC(=O)/C(=C/c2ccc(-c3ccc(F)cc3O)o2)S1` + O=C(Oc1ccc([N+](=O)[O-])cc1)N1CCC(C(O)(c2ccc3c(c2)OCO3)c2ccc3c(c2)OCO3)CC1 [JZL184] (first compound 1 µM, partner dose 1 µM), the cell count amounted to 89.3%.

In turn, `O=C(O)c1ccc2c(c1)nc(Nc1cccc(Cl)c1)c1ccncc12` + C[As](C)SC[C@H](NC(=O)CC[C@H](N)C(=O)O)C(=O)NCC(=O)O [Darinaparsin] (first compound 0.4 µM, partner dose 0.4 µM) gave a cell count of 86.5%. With `CN1CCN(c2ccc3nc(-c4c(N)c5c(F)cccc5[nH]c4=O)[nH]c3c2)CC1` [Dovitinib] + C/C(O)=C(\C#N)C(=O)Nc1cc(Br)ccc1Br [LFM-A13] (first compound 0.1 µM, partner dose 2 µM), the cell count worked out at 84.9%. As for `O=C(O)c1ccc2c(c1)nc(Nc1cccc(Cl)c1)c1ccncc12` + Cc1cc(SCc2sc(-c3ccc(C(F)(F)F)c(F)c3)nc2C)ccc1OCC(=O)O [GW0742] (first compound 0.4 µM, partner dose 2 µM), the cell count was 99.7%. Still for that read-out and setting: the value for `CN1CCN(c2ccc3nc(-c4c(N)c5c(F)cccc5[nH]c4=O)[nH]c3c2)CC1` [Dovitinib] + C[As](C)SC[C@H](NC(=O)CC[C@H](N)C(=O)O)C(=O)NCC(=O)O [Darinaparsin] (first compound 0.1 µM, partner dose 0.4 µM) was 79.9%. `Cc1cc(Nc2cc(N3CCN(C)CC3)nc(Sc3ccc(NC(=O)C4CC4)cc3)n2)n[nH]1` [Tozasertib] + N.N.[Cl][Pt][Cl] [cisplatin] (first compound 0.006 µM, partner dose 1.6 µM) displayed a cell count of 84.8%. The compound `CN1CCN(c2ccc3nc(-c4c(N)c5c(F)cccc5[nH]c4=O)[nH]c3c2)CC1` [Dovitinib] + O=C(Oc1ccc([N+](=O)[O-])cc1)N1CCC(C(O)(c2ccc3c(c2)OCO3)c2ccc3c(c2)OCO3)CC1 [JZL184] (first compound 0.1 µM, partner dose 1 µM) registered a cell count of 90.3%. As to `Clc1ccc(Nc2nnc(Cc3ccncc3)c3ccccc23)cc1` [vatalanib] + C/C(O)=C(\C#N)C(=O)Nc1cc(Br)ccc1Br [LFM-A13] (first compound 2 µM, partner dose 2 µM), the cell count is 94.7%. `CC(C)C[C@H](NC(=O)[C@H](Cc1ccccc1)NC(=O)c1cnccn1)B(O)O` [Bortezomib] + C[As](C)SC[C@H](NC(=O)CC[C@H](N)C(=O)O)C(=O)NCC(=O)O [Darinaparsin] (first compound 0.001 µM, partner dose 0.4 µM) yielded a cell count of 75.7%. As for `Cc1cc([N+](=O)[O-])ccc1NS(=O)(=O)c1cc(Cl)ccc1Cl` + O=C(Oc1ccc([N+](=O)[O-])cc1)N1CCC(C(O)(c2ccc3c(c2)OCO3)c2ccc3c(c2)OCO3)CC1 [JZL184] (first compound 1 µM, partner dose 1 µM), the cell count stood at 92.2%.

`Cc1cc(Nc2cc(N3CCN(C)CC3)nc(Sc3ccc(NC(=O)C4CC4)cc3)n2)n[nH]1` [Tozasertib] + Cn1cc(C2=C(c3cn(C4CCN(Cc5ccccn5)CC4)c4ccccc34)C(=O)NC2=O)c2ccccc21 [Enzastaurin] (first compound 0.006 µM, partner dose 0.8 µM) came in with a cell count of 96.4%. `Cc1cc(Nc2cc(N3CCN(C)CC3)nc(Sc3ccc(NC(=O)C4CC4)cc3)n2)n[nH]1` [Tozasertib] + O=C(Oc1ccc([N+](=O)[O-])cc1)N1CCC(C(O)(c2ccc3c(c2)OCO3)c2ccc3c(c2)OCO3)CC1 [JZL184] (first compound 0.006 µM, partner dose 1 µM) gave a cell count of 90.2%. On the same count and under the same terms, with `Oc1cc(-c2nc(-c3ccccc3)[nH]c2-c2ccncc2)ccc1Cl` + C/C(O)=C(\C#N)C(=O)Nc1cc(Br)ccc1Br [LFM-A13] (first compound 0.2 µM, partner dose 2 µM) the figure was 98.8%. `O=C(O)C(=O)Nc1sc2c(c1C(=O)O)CCNC2` + O=C(Oc1ccc([N+](=O)[O-])cc1)N1CCC(C(O)(c2ccc3c(c2)OCO3)c2ccc3c(c2)OCO3)CC1 [JZL184] (first compound 1.66667 µM, partner dose 1 µM) displayed a cell count of 112%. The same measure, in the same setting: with `C#Cc1cccc(Nc2ncnc3cc(OCCOC)c(OCCOC)cc23)c1` [erlotinib] + C[As](C)SC[C@H](NC(=O)CC[C@H](N)C(=O)O)C(=O)NCC(=O)O [Darinaparsin] (first compound 0.8 µM, partner dose 0.4 µM) the figure was 78.8%; with `Clc1ccc(Nc2nnc(Cc3ccncc3)c3ccccc23)cc1` [vatalanib] + O=C(Oc1ccc([N+](=O)[O-])cc1)N1CCC(C(O)(c2ccc3c(c2)OCO3)c2ccc3c(c2)OCO3)CC1 [JZL184] (first compound 2 µM, partner dose 1 µM), 84.4%; with `COc1cc2ncnc(Nc3ccc(Oc4ccccc4)cc3)c2cc1OC` + O=C(Oc1ccc([N+](=O)[O-])cc1)N1CCC(C(O)(c2ccc3c(c2)OCO3)c2ccc3c(c2)OCO3)CC1 [JZL184] (first compound 2 µM, partner dose 1 µM), 92.1%.
